Measured values from a collection of fitness landscapes (doi:10.1038/s41467-024-54723-y).
The full ranking holds about 18,000 sequences; the median of “TetR repression strength (sort-seq, GFP reporter)” is about 0.23, and the highest 2% start at about 0.68. Some of the results follow.

Each sequence was assayed against TetR (class B, Tn10) (UniProt P04483) (assay: TetR repression strength (sort-seq, GFP reporter) (relative to tetO2 = 1); higher = stronger repression). Conditions: E. coli.
Sequence of UniProt P04483 (P04483 whole entry): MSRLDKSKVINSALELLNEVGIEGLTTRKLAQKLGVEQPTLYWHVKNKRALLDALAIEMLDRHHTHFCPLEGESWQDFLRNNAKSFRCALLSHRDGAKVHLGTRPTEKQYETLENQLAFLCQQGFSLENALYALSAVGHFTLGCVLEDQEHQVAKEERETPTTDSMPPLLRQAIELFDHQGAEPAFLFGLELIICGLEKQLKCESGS
In short: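 Repression strength was calculated by subtracting the read-weighted mean bin from the top bin index plus one and dividing by the unaltered operator's value. The plasmid library was low-copy in E. coli SIG10-MAX, with eight randomized operator positions between a constitutive promoter and sfGFP and constitutive TetR. Cultures grew 5 h at 37 °C in LB containing 50 µg/mL chloramphenicol before 10^6 cells were sorted by FACS into 13 fluorescence bins, each sequenced on Illumina. Three independent transformations were averaged for members having ≥30 reads in all replicates and a CV ≤0.5.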
Sequence TCCCAATCAGTGAGTGAGA has a TetR repression strength of 0.701.
Sequence TCCCCGAGAGTAGGGGAGA has a TetR repression strength of 0.202.
For TCCCAGGGAGTAGTAGAGA, the TetR repression strength was 0.344.
TCCCTAAAAGTGTAGGAGA was tested, and the TetR repression strength was 0.131.
In the case of TCCCTTAAAGTGTAGGAGA, the TetR repression strength is reported as 0.0265.
Work on TCCCATTAAGTAGTTGAGA yielded a TetR repression strength of 0.165.
TCCCGGGGAGTCAATGAGA showed a TetR repression strength of 0.112.
With TCCCGGGTAGTCAAAGAGA the TetR repression strength was 0.31.
With TCCCTCGAAGTAGAAGAGA the TetR repression strength was 0.297.
TCCCATCTAGTATCGGAGA gave a TetR repression strength of 0.908.
Sequence TCCCCTCTAGTGCGAGAGA has a TetR repression strength of 0.481.
TCCCGGACAGTCGGTGAGA showed a TetR repression strength of 0.148.
Sequence TCCCACGTAGTTTACGAGA has a TetR repression strength of 0.203.
For TCCCAATCAGTACATGAGA, the TetR repression strength was 0.281.
For TCCCGACAAGTTGCCGAGA, the TetR repression strength was 0.258.
Sequence TCCCGGAGAGTGCCTGAGA has a TetR repression strength of 0.184.
With TCCCTGCGAGTGCCAGAGA the TetR repression strength was 0.218.
Sequence TCCCTTCCAGTGGCGGAGA has a TetR repression strength of 0.341.
In the case of TCCCATCAAGTGATCGAGA, the TetR repression strength is reported as 0.231.
TCCCTGCGAGTTCGTGAGA gave a TetR repression strength of 0.297.
TCCCCGCAAGTCCCGGAGA was tested, and the TetR repression strength was 0.123.
Work on TCCCTAGTAGTGGCTGAGA yielded a TetR repression strength of 0.905.
Sequence TCCCGTCAAGTAAACGAGA has a TetR repression strength of 0.227.
TCCCGGCCAGTATCGGAGA showed a TetR repression strength of 0.149.
TCCCGTGCAGTGGTGGAGA showed a TetR repression strength of 0.16.
Work on TCCCCTTTAGTGCCAGAGA yielded a TetR repression strength of 0.583.
With TCCCGATTAGTGTAGGAGA the TetR repression strength was 0.213.
Work on TCCCCCGTAGTTGCCGAGA yielded a TetR repression strength of 0.311.
Sequence TCCCATGAAGTTGTCGAGA has a TetR repression strength of 0.0957.
Work on TCCCGGACAGTGCGTGAGA yielded a TetR repression strength of 0.116.
Sequence TCCCTTCAAGTGCTCGAGA has a TetR repression strength of 0.24.
TCCCTCCGAGTGCATGAGA showed a TetR repression strength of 0.364.
Sequence TCCCGGACAGTATGGGAGA has a TetR repression strength of 0.18.
Sequence TCCCTGGCAGTAGTCGAGA has a TetR repression strength of 0.0432.
With TCCCCTCGAGTAACAGAGA the TetR repression strength was 0.415.
Sequence TCCCTTATAGTTTGTGAGA has a TetR repression strength of 0.319.
Work on TCCCAGTCAGTGACTGAGA yielded a TetR repression strength of 0.453.
In the case of TCCCATCCAGTTTGGGAGA, the TetR repression strength is reported as 0.191.
In the case of TCCCTCAAAGTTTATGAGA, the TetR repression strength is reported as 0.293.
TCCCGTGCAGTAAAGGAGA was tested, and the TetR repression strength was 0.407.
Sequence TCCCCAGGAGTGTTGGAGA has a TetR repression strength of 0.129.
TCCCGCTAAGTGGCTGAGA gave a TetR repression strength of 0.146.
TCCCCTTAAGTGGGGGAGA gave a TetR repression strength of 0.302.
Work on TCCCACGAAGTGCCTGAGA yielded a TetR repression strength of 0.486.
TCCCGGAGAGTGGACGAGA was tested, and the TetR repression strength was 0.203.
In the case of TCCCTAAAAGTACGAGAGA, the TetR repression strength is reported as 0.207.
With TCCCTGAGAGTTATTGAGA the TetR repression strength was 0.456.
TCCCTCATAGTGCTCGAGA showed a TetR repression strength of 0.581.
Work on TCCCTCAGAGTGGACGAGA yielded a TetR repression strength of 0.314.
With TCCCAGTTAGTTTGTGAGA the TetR repression strength was 0.072.
In the case of TCCCAGGCAGTGACGGAGA, the TetR repression strength is reported as 0.294.
For TCCCCGGAAGTCTCGGAGA, the TetR repression strength was 0.384.
TCCCCTGGAGTGGGCGAGA gave a TetR repression strength of 0.15.
TCCCCTAGAGTCGCGGAGA was tested, and the TetR repression strength was 0.358.
For TCCCTTCTAGTTTAAGAGA, the TetR repression strength was 0.305.
In the case of TCCCACTTAGTACTGGAGA, the TetR repression strength is reported as 0.289.
TCCCCCAGAGTCACGGAGA was tested, and the TetR repression strength was 0.205.
In the case of TCCCGTACAGTGGGTGAGA, the TetR repression strength is reported as 0.241.
TCCCTCCAAGTGATCGAGA gave a TetR repression strength of 0.306.
Sequence TCCCGTTAAGTATAGGAGA has a TetR repression strength of 0.0676.
TCCCTTATAGTGCATGAGA gave a TetR repression strength of 0.
TCCCGTCGAGTAGATGAGA was tested, and the TetR repression strength was 0.14.
TCCCTCCGAGTTACGGAGA was tested, and the TetR repression strength was 0.226.
Sequence TCCCGGTCAGTGTAGGAGA has a TetR repression strength of 0.176.
TCCCTTTAAGTCAGAGAGA showed a TetR repression strength of 0.307.
With TCCCTGGAAGTGGGTGAGA the TetR repression strength was 0.205.
TCCCTGTGAGTTTTGGAGA was tested, and the TetR repression strength was 0.407.
In the case of TCCCGGTAAGTGGGTGAGA, the TetR repression strength is reported as 0.141.
For TCCCGATTAGTCTTTGAGA, the TetR repression strength was 0.0932.
With TCCCAGGAAGTACGTGAGA the TetR repression strength was 0.0829.
TCCCATACAGTGGTTGAGA showed a TetR repression strength of 0.202.
TCCCACTGAGTCGGAGAGA showed a TetR repression strength of 0.24.
Work on TCCCAGTGAGTCCATGAGA yielded a TetR repression strength of 0.163.
TCCCTGACAGTGCAAGAGA showed a TetR repression strength of 0.393.
TCCCCGCGAGTGTTGGAGA showed a TetR repression strength of 0.248.
With TCCCGCACAGTAGTAGAGA the TetR repression strength was 0.194.
For TCCCCAAGAGTGCTAGAGA, the TetR repression strength was 0.282.
TCCCTAACAGTGTTCGAGA showed a TetR repression strength of 0.305.
TCCCGGCTAGTGCTAGAGA gave a TetR repression strength of 0.206.
Sequence TCCCCAGTAGTTCGAGAGA has a TetR repression strength of 0.32.
For TCCCCATGAGTTGAAGAGA, the TetR repression strength was 0.435.
With TCCCGGTTAGTAATTGAGA the TetR repression strength was 0.345.
For TCCCCAAAAGTAAATGAGA, the TetR repression strength was 0.19.
Work on TCCCATGAAGTTAAAGAGA yielded a TetR repression strength of 0.0451.
Work on TCCCTGCTAGTTGGCGAGA yielded a TetR repression strength of 0.13.
Sequence TCCCACGAAGTCAACGAGA has a TetR repression strength of 0.422.
Sequence TCCCAATAAGTGGTTGAGA has a TetR repression strength of 0.197.
For TCCCGTTAAGTATTGGAGA, the TetR repression strength was 0.254.
With TCCCGCGCAGTGGCAGAGA the TetR repression strength was 0.342.
With TCCCTAGAAGTGGCTGAGA the TetR repression strength was 0.146.
In the case of TCCCCTTCAGTCTGAGAGA, the TetR repression strength is reported as 0.419.
TCCCAAGAAGTCGTGGAGA showed a TetR repression strength of 0.174.
TCCCTTGTAGTGATTGAGA gave a TetR repression strength of 0.266.
TCCCCACTAGTAAATGAGA gave a TetR repression strength of 0.726.
TCCCCCCGAGTCGCGGAGA showed a TetR repression strength of 0.237.
Work on TCCCGAGGAGTGGGGGAGA yielded a TetR repression strength of 0.287.
TCCCTATCAGTCGGTGAGA gave a TetR repression strength of 0.539.
Work on TCCCTCTAAGTCTGCGAGA yielded a TetR repression strength of 0.276.
TCCCATTTAGTACAGGAGA was tested, and the TetR repression strength was 0.202.
With TCCCCATTAGTGTGGGAGA the TetR repression strength was 0.217.
TCCCTTATAGTTGCCGAGA showed a TetR repression strength of 0.429.
Work on TCCCCATCAGTTAATGAGA yielded a TetR repression strength of 0.419.
TCCCTTGTAGTGGCAGAGA showed a TetR repression strength of 0.0403.
TCCCTCTAAGTTCTCGAGA showed a TetR repression strength of 0.341.
With TCCCGGACAGTAGAGGAGA the TetR repression strength was 0.104.
With TCCCTGTTAGTGATTGAGA the TetR repression strength was 0.441.
TCCCCTTTAGTCGGAGAGA was tested, and the TetR repression strength was 0.163.
With TCCCGCTTAGTGAAGGAGA the TetR repression strength was 0.345.
In the case of TCCCTCGGAGTTGGAGAGA, the TetR repression strength is reported as 0.318.
TCCCACAAAGTTAGCGAGA showed a TetR repression strength of 0.335.
For TCCCGTTGAGTCACCGAGA, the TetR repression strength was 0.397.
Sequence TCCCGGCAAGTAGGCGAGA has a TetR repression strength of 0.365.
In the case of TCCCAGGTAGTTGAAGAGA, the TetR repression strength is reported as 0.227.
In the case of TCCCGATGAGTGATCGAGA, the TetR repression strength is reported as 0.216.
Sequence TCCCCTCAAGTTACTGAGA has a TetR repression strength of 0.571.
Sequence TCCCCTCTAGTGTTTGAGA has a TetR repression strength of 0.945.
With TCCCGGGCAGTCATGGAGA the TetR repression strength was 0.356.
In the case of TCCCGATTAGTGTGCGAGA, the TetR repression strength is reported as 0.325.
With TCCCGGCGAGTGTCCGAGA the TetR repression strength was 0.00305.
In the case of TCCCCGTAAGTGCAGGAGA, the TetR repression strength is reported as 0.21.
TCCCTGGGAGTATGTGAGA showed a TetR repression strength of 0.444.
TCCCAACAAGTTGCGGAGA was tested, and the TetR repression strength was 0.236.
Work on TCCCGAAAAGTGTGGGAGA yielded a TetR repression strength of 0.173.
In the case of TCCCAGAAAGTAAGCGAGA, the TetR repression strength is reported as 0.126.
Work on TCCCACAGAGTGAGGGAGA yielded a TetR repression strength of 0.402.
Sequence TCCCAACCAGTCTTTGAGA has a TetR repression strength of 0.36.
With TCCCAACGAGTGAATGAGA the TetR repression strength was 0.163.
In the case of TCCCGTGAAGTGATAGAGA, the TetR repression strength is reported as 0.216.
Work on TCCCTTGAAGTGCAGGAGA yielded a TetR repression strength of 0.0288.
With TCCCGGCGAGTAAATGAGA the TetR repression strength was 0.218.
